In this assay the target is T1, p21-activated protein kinase 1 (Pak1), full-length, amino acids 1-545 (human, UniProt Q13153 1-545).
T1 construct: Used both as in vitro translated 35S-labeled full-length protein and as the endogenous protein of human cell lines
Description: GST pull-down with in vitro translated 35S-labeled Pak1.

T1 sequence (Q13153 whole entry A26V/E503D, the tested form may be a part): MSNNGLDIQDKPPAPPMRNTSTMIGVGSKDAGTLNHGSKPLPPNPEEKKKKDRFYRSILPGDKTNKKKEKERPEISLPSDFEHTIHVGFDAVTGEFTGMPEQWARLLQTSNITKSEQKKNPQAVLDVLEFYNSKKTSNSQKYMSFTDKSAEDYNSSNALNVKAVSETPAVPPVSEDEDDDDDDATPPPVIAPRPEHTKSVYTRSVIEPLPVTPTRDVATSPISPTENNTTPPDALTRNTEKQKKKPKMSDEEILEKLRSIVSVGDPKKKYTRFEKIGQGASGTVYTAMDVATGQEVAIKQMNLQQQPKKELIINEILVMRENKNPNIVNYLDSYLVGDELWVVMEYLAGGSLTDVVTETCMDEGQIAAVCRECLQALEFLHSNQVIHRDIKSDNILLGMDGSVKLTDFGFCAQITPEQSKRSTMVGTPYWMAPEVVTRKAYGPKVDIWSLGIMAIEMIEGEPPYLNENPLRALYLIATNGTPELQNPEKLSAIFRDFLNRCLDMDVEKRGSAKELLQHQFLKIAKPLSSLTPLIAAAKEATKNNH

B1: GST (other)
chain: not shown
notes: Negative control in GST pull-down assays; also called glutathione-S-transferase
For B1, the binding result is on record as “no binding”.

(Values after patent US20040208880A1 (University of Texas, published 2004).)
